Molecules are shown by their SMILES. The whole screen tested about 310,000 compounds, of which about 14,000 (4.5%) showed an effect of 50% or more. Effects have a minus sign here. This is one part of the list.
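Note: peak tail current of the secondary pulse compared with the same well before compound.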

The target in this test is human ether-à-go-go-related gene (hERG) potassium channel (human, UniProt Q12809). Kind of test: primary screen, population patch clamp on CHO cells stably expressing hERG.
Sequence of human ether-à-go-go-related gene (hERG) potassium channel (Q12809 whole entry, looked up): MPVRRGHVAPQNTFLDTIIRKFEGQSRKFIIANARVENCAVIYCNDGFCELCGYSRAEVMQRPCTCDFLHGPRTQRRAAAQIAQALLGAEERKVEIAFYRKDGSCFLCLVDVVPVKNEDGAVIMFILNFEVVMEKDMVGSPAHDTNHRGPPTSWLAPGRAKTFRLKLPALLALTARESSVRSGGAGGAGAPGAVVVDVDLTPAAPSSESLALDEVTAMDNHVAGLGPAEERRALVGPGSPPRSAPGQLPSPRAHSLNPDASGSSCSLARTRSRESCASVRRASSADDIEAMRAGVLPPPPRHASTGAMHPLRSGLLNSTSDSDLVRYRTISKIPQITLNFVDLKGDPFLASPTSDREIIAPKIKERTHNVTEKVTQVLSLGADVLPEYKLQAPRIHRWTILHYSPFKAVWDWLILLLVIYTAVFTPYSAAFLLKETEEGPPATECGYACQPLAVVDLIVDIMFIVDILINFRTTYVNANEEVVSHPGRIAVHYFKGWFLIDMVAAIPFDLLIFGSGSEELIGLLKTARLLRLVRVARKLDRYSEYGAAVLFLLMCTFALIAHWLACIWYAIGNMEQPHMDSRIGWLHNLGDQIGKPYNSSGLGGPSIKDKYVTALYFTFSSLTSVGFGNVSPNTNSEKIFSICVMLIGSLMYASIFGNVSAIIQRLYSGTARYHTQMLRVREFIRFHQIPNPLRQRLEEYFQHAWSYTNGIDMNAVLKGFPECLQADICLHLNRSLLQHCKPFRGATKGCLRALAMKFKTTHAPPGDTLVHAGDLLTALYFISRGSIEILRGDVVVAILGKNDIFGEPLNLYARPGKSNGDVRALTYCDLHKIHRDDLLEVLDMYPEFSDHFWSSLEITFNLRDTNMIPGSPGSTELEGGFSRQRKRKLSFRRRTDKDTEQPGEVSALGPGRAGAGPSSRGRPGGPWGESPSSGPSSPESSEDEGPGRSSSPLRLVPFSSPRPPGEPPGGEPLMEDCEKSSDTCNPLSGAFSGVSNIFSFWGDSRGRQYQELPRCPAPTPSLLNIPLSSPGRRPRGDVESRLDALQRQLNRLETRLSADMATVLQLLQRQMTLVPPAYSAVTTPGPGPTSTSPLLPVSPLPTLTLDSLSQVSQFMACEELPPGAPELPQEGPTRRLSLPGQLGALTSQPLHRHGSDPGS
Turning to `Cc1nn(-c2ccccc2)c(C)c1C(=O)NCCc1ccccc1`, the “hERG current change (%, negative = inhibition) at 10uM” value was 1.03%. On to `COc1cc(NC(=O)c2ccco2)c(OC)cc1NC(=O)Nc1ccc(Cl)cc1`, for which the “hERG current change (%, negative = inhibition) at 10uM” value was -14.8%. Then `O=C(CNC(=O)c1ccco1)OCc1ccc(Cl)cc1`, with 3.86%; and `C=CCn1c(-c2c[nH]c3ccccc23)n[nH]c1=S`, with 15.1%; and `CN(c1ccc(C(=O)NCCSCc2ccco2)cc1)S(C)(=O)=O`, with -3.16%.

With `O=C(NNC(=O)c1cc(-c2ccncc2)nc2ccccc12)c1ccccc1O`, the “hERG current change (%, negative = inhibition) at 10uM” value is -6.5%. Then `CCc1ccc(-c2nc(SCC(=O)NC3CC3)n[nH]2)cc1`, with 7.48%; and `Cc1ccc(CN2CCN(Cc3ccco3)CC2)cc1.O=C(O)C(=O)O`, with -15.5%; and `CC(C)c1nc(C(N)=O)c2[nH]c(=O)n(-c3ccc(F)cc3)c2n1`, with 0.843%.

For `COc1ccc(-c2csc(NC(C)c3nc4cc(Cl)c(N5CCCCC5)cc4n3CCCO)n2)cc1` (stereo not drawn), the “hERG current change (%, negative = inhibition) at 10uM” value is reported as 30.5%. Then `CCOc1ccc(NC(=O)COc2ccc3c(c2)OCO3)cc1`, with 1.04%. With `C=CCNS(=O)(=O)c1sccc1/C=N/O`, the “hERG current change (%, negative = inhibition) at 10uM” value is -3.2%. Then `CCOC(=O)CN1C(=O)C2(OCCCO2)c2ccccc21`, with -7.58%; and `COc1ccc(Br)cc1S(=O)(=O)NNC(=O)c1c(C)nc2ccccn12`, with 1.39%.

Regarding `CCCC[n+]1c(C)sc2ccc(C)cc21.[Cl-]`, the “hERG current change (%, negative = inhibition) at 10uM” value was 21%.

In the case of `COc1cc(OC)cc(-c2c(C#Cc3ccsc3)c3cc(Br)ccc3n2C)c1`, the “hERG current change (%, negative = inhibition) at 10uM” value is reported as 4.51%. `CC(C)CC1c2[nH]c3ccccc3c2CCN1C(=O)c1cnccn1` (stereo not drawn): the “hERG current change (%, negative = inhibition) at 10uM” value turned out to be 3.61%.

As for `Cc1ccc(C2=Nc3ccccc3N=C(C(Cl)Cl)C2)cc1`, the “hERG current change (%, negative = inhibition) at 10uM” value is reported as -12.6%.

For the compound `O=C(NNC(=S)NC(=O)c1ccccc1Cl)c1cccc([N+](=O)[O-])c1`, the “hERG current change (%, negative = inhibition) at 10uM” value was found to be 13.9%. Then `O=C(CSc1nnnn1-c1ccc(F)cc1F)Nc1ccccc1F`, with 6.25%; and `O=C(CC12CC3CC(CC(C3)C1)C2)NC1CC1`, with 23.2%; and `O=[N+]([O-])c1ccccc1S(=O)(=O)NCCSc1ccccc1`, with 4.87%. Then `O=C(NC(Cc1ccccc1)C(=O)O)c1ccc(S(=O)(=O)N2CCCC2)cc1` (stereo not drawn), with 5.45%. Then `CCNC(=O)CC1SC(=Nc2ccccc2C)N(C)C1=O` (stereo not drawn), with -7.92%; and `O=C(CSc1cn(CC(=O)N2CCCCCC2)c2ccccc12)NCC1CCCO1` (stereo not drawn), with -18.8%.

In the case of `COc1ccc([C@@H]2[C@@H]3C(=O)N(C(C)(C)C)C(=O)[C@@H]3[C@]3(CC(C)C)C(=O)N(c4cccc(Br)c4)C(=O)N23)cc1`, the “hERG current change (%, negative = inhibition) at 10uM” value was determined as 21.3%. Then `COCCCn1c(SCC(=O)Nc2ccc(C)cc2)nc2ccccc2c1=O`, with -2.1%; and `CC(Cc1c[nH]c2ccccc12)C(=O)O` (stereo not drawn), with 5.9%.

In the case of `CCCc1cc(=O)oc2cc(C)cc(OC(C)C(=O)NCCCn3ccnc3)c12` (stereo not drawn), the “hERG current change (%, negative = inhibition) at 10uM” value is reported as -65.3%.

Regarding `Cc1cc(C(=O)NC2CCCN(Cc3ccc(Cl)cc3)C2)no1` (stereo not drawn), the “hERG current change (%, negative = inhibition) at 10uM” value is -34.6%.

For the compound `CSc1ccc(CCNC(=O)C2CCCN(S(=O)(=O)N3CCOCC3)C2)cc1` (stereo not drawn), the “hERG current change (%, negative = inhibition) at 10uM” value is -0.853%. Then `COc1cc(CC(=O)OCC(=O)c2ccc3c(c2)OCCO3)cc(OC)c1OC`, with -58.6%; and `CCCCCC(=O)Nc1c2c(nc3ccccc13)CCC2`, with -45.7%. Then `CC12CCC(C(=O)N3CCCCC3)(CC1=O)C2(C)C` (stereo not drawn), with 17.1%; and `COc1ccc(C(=O)NCCOc2cccc(Oc3ccccc3)c2)cc1OC`, with -4.91%. For `CC(=O)N1CC(C)Sc2ccc(S(=O)(=O)NCCc3cccc(C)c3)cc21` (stereo not drawn), the “hERG current change (%, negative = inhibition) at 10uM” value was 0.141%.

Regarding `O=S(=O)(c1ccc(OCC(O)CN2CCN(c3ccccc3)CC2)cc1)N1CCOCC1` (stereo not drawn), the “hERG current change (%, negative = inhibition) at 10uM” value was found to be 0.147%.

Turning to `O=C(NC(=S)Nc1ccccn1)c1ccc(-c2ccccc2)cc1`, the “hERG current change (%, negative = inhibition) at 10uM” value is on record as 15.3%.

As for `COc1ccc(-n2nc(C(=O)NCC(=O)N3CCN(C)CC3)c3ccccc3c2=O)cc1OC`, the “hERG current change (%, negative = inhibition) at 10uM” value came to 19%. Then `CCOC(=O)c1c(NC(=O)c2nn(C)cc2[N+](=O)[O-])sc(C)c1C`, with 16.5%; and `Cc1cc(C(=O)Nc2ccon2)ccc1[N+](=O)[O-]`, with 3.75%; and `Cc1cc(C(=O)COC(=O)c2nc3nccc(C)n3n2)c(C)n1CC1CCCO1` (stereo not drawn), with 23.4%. Then `O=c1nccc(N/N=C/c2cccc(O)c2)[nH]1`, with 28%.

`CC(=O)NC(CC(=O)OCC(=O)N1c2ccccc2NC(=O)C1(C)C)c1ccccc1` (stereo not drawn): the “hERG current change (%, negative = inhibition) at 10uM” value turned out to be 0.694%. Take `CC1CCCN(CC(O)COc2ccc(-c3ccccc3)cc2)C1` (stereo not drawn): the “hERG current change (%, negative = inhibition) at 10uM” value was -73.4%.

The values above are taken from paper PMC4336329 (PLoS ONE, 2015).
